Screen size: about 310,000 compounds; about 2,200 (0.71%) showed an effect of 50% or more. Effects have a minus sign here. The list shows a part of the results.
molecular target: human ether-à-go-go-related gene (hERG) potassium channel (human, UniProt Q12809); assay: primary screen, population patch clamp on CHO cells stably expressing hERG
Sequence (Q12809 whole entry, looked up): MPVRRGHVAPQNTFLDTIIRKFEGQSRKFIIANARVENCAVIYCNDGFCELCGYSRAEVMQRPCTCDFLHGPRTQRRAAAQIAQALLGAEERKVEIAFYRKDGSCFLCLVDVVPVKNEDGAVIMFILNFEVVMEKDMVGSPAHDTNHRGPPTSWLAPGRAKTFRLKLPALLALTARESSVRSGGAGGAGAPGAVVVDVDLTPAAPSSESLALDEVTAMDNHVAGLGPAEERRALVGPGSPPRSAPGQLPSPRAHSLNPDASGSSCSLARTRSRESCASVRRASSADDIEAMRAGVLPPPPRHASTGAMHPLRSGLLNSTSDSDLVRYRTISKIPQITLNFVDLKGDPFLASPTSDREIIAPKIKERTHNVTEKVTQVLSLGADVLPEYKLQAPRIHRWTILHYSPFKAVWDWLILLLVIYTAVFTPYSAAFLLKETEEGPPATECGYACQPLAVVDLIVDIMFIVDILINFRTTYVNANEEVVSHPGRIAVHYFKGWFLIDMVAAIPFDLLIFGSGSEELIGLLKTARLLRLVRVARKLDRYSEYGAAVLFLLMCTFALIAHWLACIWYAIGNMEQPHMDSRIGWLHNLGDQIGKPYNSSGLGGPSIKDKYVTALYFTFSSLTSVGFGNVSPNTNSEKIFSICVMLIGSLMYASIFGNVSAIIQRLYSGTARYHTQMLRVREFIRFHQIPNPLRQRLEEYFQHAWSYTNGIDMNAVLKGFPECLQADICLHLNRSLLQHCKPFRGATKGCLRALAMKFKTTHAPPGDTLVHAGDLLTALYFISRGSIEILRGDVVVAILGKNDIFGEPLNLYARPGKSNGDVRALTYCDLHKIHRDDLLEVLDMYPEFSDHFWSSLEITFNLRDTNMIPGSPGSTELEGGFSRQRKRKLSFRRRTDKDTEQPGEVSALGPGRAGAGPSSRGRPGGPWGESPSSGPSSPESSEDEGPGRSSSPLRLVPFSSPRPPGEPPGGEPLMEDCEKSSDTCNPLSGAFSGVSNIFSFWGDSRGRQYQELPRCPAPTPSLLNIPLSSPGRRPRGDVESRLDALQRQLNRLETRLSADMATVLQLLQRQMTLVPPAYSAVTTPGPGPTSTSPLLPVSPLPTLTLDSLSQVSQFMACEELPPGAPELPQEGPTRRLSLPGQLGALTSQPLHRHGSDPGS

Row | SMILES | hERG current change (%, negative = inhibition) at 1uM [%]
1 | Clc1ccc2[nH]c3c(c2c1)CNCC3 | 10.8
2 | CC(=NC(C)C)C1=C(O)C(C)OC1=O (stereo not drawn) | 10.9
3 | COC(C[C@H]1O[C@@H]1[C@H](O)[C@H](C)OCc1ccccc1)OC | 12.3
4 | Cc1ccccc1C(=O)NCCCCc1ccccc1 | 8.46
5 | Cc1c(Cl)cccc1NC(=S)N(Cc1cccnc1)Cc1ccccc1Cl | 10.3
6 | O=C(Cn1cc(C(=O)C2CC2)c2ccccc21)NCC1CCCO1 (stereo not drawn) | 0.573
7 | CCNS(=O)(=O)c1ccc2c(c1)NCC2 | 20.8
8 | COc1cc(C(=O)N(Cc2cc3ccccc3[nH]c2=O)CC2CCCO2)cc(OC)c1OC (stereo not drawn) | 4.8
9 | CC(=O)N1CCN(c2ccc(NC(=O)c3ccc(Cl)cc3)cc2)CC1 | 5.94
10 | O=S(=O)(O)c1cnccc1Nc1cccc(C(F)(F)F)c1 | 11.1
11 | C/C(=N/NC(=O)CCCOc1ccc(Cl)cc1Cl)c1ccc(C)o1 | 12.5
12 | O=C(CCNS(=O)(=O)c1ccc(Br)cc1)Nc1cccc(F)c1 | 6.1
13 | COc1ccc(CCC(=O)Nc2ccc3c(c2)OCO3)cc1OC | 16.9
14 | O=C(CSc1cccc2cccnc12)NCc1ccco1 | 6.72
15 | Cc1ccn(CCC(=O)NC2CCCc3c2cnn3-c2cccc(C)c2C)n1 (stereo not drawn) | 12.9
16 | CS(=O)(=O)N1CCN(C(=O)c2cc(-c3ccccc3)nc3ccccc23)CC1 | -5.59
17 | O=C(O)CN1C(=O)C(=O)N(Cc2ccc(C(F)(F)F)cc2)C1=O | 20.9
18 | COc1ccccc1NC(=S)NC(=O)Cc1ccc(Cl)cc1 | 14.2
19 | C/C(=N\N1CCN(C2c3ccccc3-c3ccccc32)CC1)c1ccncc1 | 10.3

Row | SMILES | hERG current change (%, negative = inhibition) at 1uM [%]
20 | Cc1c(NC(=O)C2CC(c3cccc(Br)c3)=NO2)c(=O)n(-c2ccccc2)n1C (stereo not drawn) | 13.6
21 | CCCOc1ccc(C2C(C(=O)c3ccc(C)o3)=C(O)C(=O)N2Cc2ccco2)cc1OCC (stereo not drawn) | 14.9
22 | COc1ccc(CNC(=O)CN2C(=O)CCSc3ccc(S(=O)(=O)N4CCCC4)cc32)cc1 | 5.07
23 | O=C(CS(=O)(=O)c1cn(Cc2cccc(F)c2)c2ccccc12)N1CCOCC1 | 0.41
24 | CC1(C)N=C(N)N=C(N)N1c1ccc(C(=O)O)cc1.Cl | -1.62
25 | O=C(CCCN1C(=O)c2ccccc2C1=O)Nc1nncs1 | 14.9
26 | COc1ccc(Br)cc1/C=N/NC(=O)c1ccc2nc[nH]c2c1 | 18.8
27 | Cn1cccc1-c1nc2ccc([N+](=O)[O-])cc2[nH]1 | 18.2
28 | CCOC(=O)C1=C(C)NC(=O)CC1c1cc2c(cc1[N+](=O)[O-])OCO2 (stereo not drawn) | 14.6
29 | Cc1ccccc1NC(=S)NN1CCN(C)CC1 | 0.714
30 | Clc1ccc(OCCN2CCCCC2)c(Cl)c1.O=C(O)C(=O)O | -2.54
31 | COc1ccc(C2CC(c3ccc(Cl)cc3)=NN2C(C)=O)cc1 (stereo not drawn) | 14
32 | c1ccc2c(-c3ccncc3)c[nH]c2c1 | 12
33 | COc1ccc(/C=C/c2nnc(NC(=O)C(C)C)s2)cc1 | 11.6
34 | Cc1cccc(CN2C(=O)N/C(=C/c3cc(C)n(-c4cc(C)ccn4)c3C)C2=O)c1 | 17.6
35 | COCC(C)N1CCC(n2nccc2NC(=O)CCCc2ccccc2)CC1 (stereo not drawn) | 9.57
36 | CN(CC(=O)NCc1ccc2c(c1)OCO2)CC(=O)Nc1ccc(F)c(F)c1F | 1.88
37 | CC(=O)c1cccc(NC(=O)Nc2ccc3c(c2)N(C)C(=O)CS3)c1 | -6.26
38 | O=C(COC(=O)CNC(=O)c1ccc(Cl)cc1Cl)NC(=O)NC1CCCCC1 | 1.6

Row | SMILES | hERG current change (%, negative = inhibition) at 1uM [%]
39 | COc1ccccc1CNC(=O)COC(=O)CNS(=O)(=O)c1ccc(C)cc1 | -13.3
40 | Cc1nn(C)c(Cl)c1NC(=O)OCc1ccccc1 | -14
41 | COc1ccc(OC)c(N(CC(=O)NC2CC3CCC2C3)S(=O)(=O)c2ccccc2)c1 (stereo not drawn) | -7.11
42 | COc1ccc(N2C(=O)C(Cl)=C(Oc3cccc(OC)c3)C2=O)cc1 | 14.1
43 | COc1ccc(NC(=O)CCOc2ccc(C)cc2)cc1S(=O)(=O)N1CCOCC1 | 0.907
44 | COc1ccc(NC(=O)c2cc(-c3cccc(OC)c3)on2)cc1 | 11.2
45 | O=C(CCCN=C1NS(=O)(=O)c2ccccc21)OCc1ccc(F)cc1 | 15.4
46 | O=C(c1cccc(Cl)c1)N(Cc1ccco1)C1CCS(=O)(=O)C1 (stereo not drawn) | 10.5
47 | COc1ccc(OCCC(=O)OCC(=O)NC(=O)NC(C)(C)C)cc1 | 7.87
48 | COc1ccc(-n2c(SC)nc(O)cc2=O)cc1 | 0.301
49 | COC(=O)C1=C(c2ccc(OC(F)(F)F)cc2)C[C@@H]2CC[C@H]1N2C(=O)NCC1CC1 | -7.23
50 | Cc1nn(C)c(C(=O)N/N=C/c2cccnc2)c1Cl | 19
51 | COc1ccc(C(=O)N2CCOCC2)cc1S(=O)(=O)N1CCC(C)CC1 | -2.57
52 | CCOCCCNC(=O)C(NC(=O)c1ccc2c(c1)OCO2)c1ccc(OC)cc1 (stereo not drawn) | 8.3
53 | CC(C)(C)NC(=O)NC(=O)COC(=O)c1ccc2c(c1)S(=O)(=O)N=C1CCCCCN12 | 13.5
54 | C[C@]12CC[C@@H](O)C[C@@H]1CC[C@@H]1[C@@H]2CC[C@]2(C)[C@@H](O)CC[C@@H]12 | 16.4
55 | COc1ccc(-n2c(Cc3cccn3C)nnc2SCC(=O)NCc2ccc(F)cc2)cc1 | -3.72
56 | COc1cccc2sc(N(CCCN(C)C)C(=O)CCS(=O)(=O)c3ccccc3)nc12 | -1.26
57 | Cc1ccc(C(=O)N(C)CC(=O)Nc2ccc(N3CCOCC3)cc2)s1 | -3.61

— paper PMC4336329 (PLoS ONE, 2015)
